Molecular target: T1, Vf-ωTA (Vibrio fluvialis, UniProt F2XBU9)
T1 construct: recombinant ω-transaminase
T1 sequence (F2XBU9 1-453): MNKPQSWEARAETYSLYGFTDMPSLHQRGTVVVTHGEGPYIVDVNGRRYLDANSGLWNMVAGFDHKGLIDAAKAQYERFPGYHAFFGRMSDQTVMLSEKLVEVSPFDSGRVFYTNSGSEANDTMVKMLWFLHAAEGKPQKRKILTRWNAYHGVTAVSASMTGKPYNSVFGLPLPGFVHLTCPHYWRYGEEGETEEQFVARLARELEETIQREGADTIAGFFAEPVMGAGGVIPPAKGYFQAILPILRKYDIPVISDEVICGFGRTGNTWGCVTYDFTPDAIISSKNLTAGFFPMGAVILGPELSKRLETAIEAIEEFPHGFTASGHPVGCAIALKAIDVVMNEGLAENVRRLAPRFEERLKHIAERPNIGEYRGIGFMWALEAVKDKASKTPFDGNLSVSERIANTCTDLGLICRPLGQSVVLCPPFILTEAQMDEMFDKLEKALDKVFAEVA
Test: HPLC of serinol formed
Format: biochemical
Details: 30 mM DHA, 150 mM L-Ala, 0.5 mM PLP, pH 7.5, 30 °C, 12 h

Row | SMILES | HPLC of serinol formed | HPLC of serinol formed (amino donor)
1 | O=C(CO)CO [DHA] | all ω-TAs gave substantially higher serinol conversion with L-Ala than with IPA or MBA | –
2 | C[C@H](N)C(=O)O [L-Ala] | – | all ω-TAs gave substantially higher serinol conversion with L-Ala than with IPA or MBA

Reference: PMC12666128, “Engineering ω-transaminase for efficient dihydroxyacetone transamination in serinol biosynthesis starting from methanol” (Synthetic and Systems Biotechnology, 2025)
